According to ChEMBL document CHEMBL4888484, “Replenishing the malaria drug discovery pipeline: Screening and hit evaluation of the MMV Hit Generation Library 1 (HGL1) against asexual blood stage Plasmodium falciparum ,using a nano luciferase reporter read-out” (2022):
Values joined by “and” are separate entries in the source; they are usually repeats but may differ in a detail not shown here. Identical values can stand only once. In all, about 150,000 compounds went through this assay and about 540 (0.36%) showed an effect of 50% or more. This is one part of the list.

Tested on: Plasmodium falciparum
Assay: Primary screen in NF54 nanoGlo assay, in single point, at 2uM, 72h; a lower Z score goes with more inhibition
Format: functional, Erythrocyte
Settings: timepoint 72 hour

SMILES | % Inhibition | Z score | % Inhibition (2 µM)
Cc1cc(C)c(S(=O)(=O)Nc2ccc(N3CCNCC3)c(C(=O)NCc3ccccc3)c2)c(C)c1 | -15% | 1.82 | –
O=C(N[C@@H]1COCC[C@@H]1OCc1ccccc1)c1ncoc1C1CC1 | -1% | 0.15 | –
Cc1cc(N2CCCO[C@@H](CF)C2)ccn1 | -8% | 0.97 | –
O=C(C1CC2CCC1C2)N1CCCC1c1ccncc1 (stereo not given) | -5% | 0.72 | –
COc1cccc2c1nc(NC(=O)CN1CCN(C)C(=O)C1)n2C | -10% | 1.37 | –
CCC(COc1ccccc1)NC(=O)C1CC12CCOCC2 (stereo not given) | -5% | 0.61 | –
O=C(c1ccncc1)N1CCCn2nc(-c3cccs3)cc2C1 | -21% | 3.92 | –
CCOC(=O)Nc1cc(C2CC2)nn1-c1nc2c(c(=O)[nH]1)CCCC2 | 4% | -0.55 | –
Cc1noc(C)c1NC(=O)N[C@@H](C)c1ccc(-n2cccn2)cc1 | -9% | 1.85 | –
Cc1cccc(C(=O)N2CCc3[nH]nc(C(=O)N(C)C)c3C2)c1 | 15% | -2.39 | –
CN1CCN(CCCOc2ccccc2-c2ncc[nH]2)CC1 | -6% | 0.94 | –
C[C@@H](CC1CC1)Nc1cccc(N2CCS(=O)(=O)CC2)c1 | -5% | 0.63 | –
Cc1ccc(C2CCN(C(=O)[C@@]3(C)CCc4ccccc4C3)CC2)cn1 | -8% | 0.88 | –
CCn1cc(CC(=O)N2CC(=O)Nc3cc(F)c(F)cc32)cn1 | 2% | -0.27 | –
COc1ccc(CC/N=C2/CCc3ccccc3N2)cc1OC | 6% | -1.21 | –
CCCN1C=NS(=O)(=O)c2cc(C(=O)Nc3ccc(C)cc3C)ccc21 | -5% | 0.84 | –
Cc1cccc(C)c1OCC(=O)c1ccc2c(c1)N([C@@H](C)C(=O)N1CCOCC1)C(=O)CO2 | -17% | 1.51 | –
CCc1ncnc(Oc2cccnc2)c1F | -11% | 1.56 | –
O=C(CCc1nc(C2CC2)no1)NC1(c2ccccc2F)CC1 | -13% | 1.82 | –
C[C@@H](CCNC(=O)C1(N2CCCCC2)CCCCC1)n1ccnc1 | 1% | -0.28 | –
C[C@@H](c1cccc(C(F)(F)F)c1)N(CC(=O)NC1(C#N)CCCC1)C1CC1 | -6% | 0.62 | –

SMILES | % Inhibition | Z score | % Inhibition (2 µM)
O=C(Nc1nc2ccccc2s1)C1CCN(c2ccc(-c3ccccc3)nn2)CC1 | 13% | -1.45 | –
COc1nccnc1N1CC[C@H](N(C)C(=O)Cc2cccs2)C1 | -6% | 0.86 | –
O=C([C@H]1C[C@@H]1c1ccc(OC(F)F)cc1)N1C[C@H](O)C[C@H](O)C1 | -18% | 1.92 | –
C[C@@H](c1ccccn1)N(C)Cc1cn(C)nn1 | 0% | 0.01 | –
CS(=O)(=O)N[C@H]1[C@H](Nc2ccc(C#N)cn2)[C@@H]2CCO[C@@H]21 | -12% | 1.43 | –
CC[C@@H](c1ccccn1)N(C)C(=O)c1oc(C)nc1C | -1% | 0.09 | –
Cc1cc(=O)[nH]c2nnc(-c3ccc(F)cc3)n12 | -4% | 0.47 | –
CCOc1ccc(-c2c(-c3ccccc3)ncn2CCN2CCC(O)CC2)cn1 | -5% | 0.52 | –
CC[C@@](C)(CNC(=O)COCc1cccc(OC)c1)N1CCOCC1 | -4% | 0.5 | –
COC(=O)c1cn(NC(=O)c2n[nH]c(C)c2Cl)cc2c(=O)[nH]nc1-2 | -16% | 2.07 | –
CC(C)Oc1nc(-c2ccc(C(F)(F)F)cc2)n(-c2ccc(NC(=O)c3ccc(F)cc3)cc2)n1 | -2% | 0.34 | –
CC1(C)CC(=O)N(Cc2ccc(C#N)cc2Br)C1=O | -15% | 2.9 | –
Cn1c(=O)c2c(-c3ccc(F)cc3)n3c(c2n(C)c1=O)[C@@H](c1cccc(Cl)c1)Oc1ccccc1-3 | -14% | 1.46 | –
O=C(N[C@H]1CCOC[C@@H]1Oc1ccc(CO)cc1)c1n[nH]c2c1CCCC2 | 10% | -0.89 | –
CC(NC(=O)N1CCOC(C(F)(F)F)C1C)c1ccnc(O)c1 (stereo not given) | 20% | -2.56 | –
Cc1n[nH]c(C)c1CC(=O)N[C@H]1CCC[C@H]1c1ccccc1 | -8% | 0.93 | –
CCN1CCCn2nc([C@H]3CCCN(Cc4cc(F)cc(F)c4)C3)cc2C1=O | -12% | 2.16 | –
CCN(Cc1ccccc1)C(=O)[C@@H](N)CC(C)C | -16% | 2.02 | –
Cc1nn(S(=O)(=O)c2cccc3nonc23)c(C)c1Br | -1% | 0.11 | –
CC(=O)c1ccc(OCC(=O)N2CCOC3CCCCC32)cc1F (stereo not given) | -15% | 3.01 | –
Cn1nc(C2CC2)n(C2CCN(C(=O)Cc3ccncc3)CC2)c1=O | -10% | 1.39 | –

SMILES | % Inhibition | Z score | % Inhibition (2 µM)
COc1ccccc1NC(=O)NC(N)=O | -5% | 0.69 | –
CCOC(=O)N1CCN(C(=O)c2cc(CC)[nH]c(=O)c2)CC1 | -15% | 2.84 | –
CC(C)c1cc(C(=O)N2C[C@@H]3CC[C@H]2CN(C2CCOCC2)C3)n(C)n1 | -2% | 0.16 | –
O=C(O)[C@@H]1CCCN1CC(=O)N1CCC(Cc2ccccc2)CC1 | 0% | -0.02 | –
COc1ccc(-c2cc(OCC(N)=O)c3cc(NC(=O)c4ccc(OC)cc4OC)ccc3n2)cc1 | 9% | -1.49 | –
O=C(O)CCCOc1nc(C2CC2)cc(C(F)(F)F)n1 | -7% | 0.92 | –
CCc1nc(-c2ccccc2)nc(N2CCN(S(=O)(=O)CC)CC2)c1Cc1ccc(OC)cc1 | -7% | 1.05 | –
Cc1n[nH]cc1CNc1ccc(CC(=O)N2CCc3ccccc32)cc1 | -15% | 2.09 | –
COc1ccc(-c2cc3c4c(C)n(-c5ccc(C)cc5)c(C)c4c(C)nn3c2)cc1 | -9% | 1.47 | –
O=C1NCCN1CCNc1cc(-c2ccccc2F)nc2ccnn12 | -1% | 0.12 | –
O=C(CCS(=O)(=O)c1ccc(Cl)cc1)Nc1nnc(-c2cccnc2)o1 | -8% | 1.29 | –
CN(C(=O)NC1CCCC1)c1nc2c(s1)CN(Cc1ccccc1)C2=O | 36% | -4.11 | –
Cc1ccc(NC(=O)c2ocnc2C(F)(F)F)c(C)n1 | -4% | 0.78 | –
Cc1cnc(CNC(=O)[C@H]2CCCNCC2)cn1 | 3% | -0.62 | –
Cc1ccc(C)c(N2CCN(C(=O)c3cc4c(-c5cccs5)nn(-c5ccccc5)c4n3C)CC2)c1 | -8% | 1.3 | –
CCOCCO/C(=N/C(=O)c1cccs1)NCc1ccc2c(c1)OCO2 | 0% | 0.02 | –
O=C(NCCN1CCCCC1)c1ccc2c(c1)OCCO2 | -6% | 0.8 | –
Cc1c(CN2CCC3(CC2)[C@H](O)C[C@@H]3O)cc(C#N)n1C | 3% | -0.5 | –
CC(C)Cc1nc(NC(=O)CC[C@@H]2NC(=O)N(Cc3ccccc3Cl)C2=O)n[nH]1 | -3% | 0.43 | –
C=CCNCc1cccc(OC)c1OCC(=O)NC(C)(C)C | 44% | -5.93 | –
COc1cccc(-c2nc3ccc(-c4ccccc4)cn3c2CN2CCN(S(=O)(=O)c3ccccc3OC)CC2)c1 | -3% | 0.34 | –

SMILES | % Inhibition | Z score | % Inhibition (2 µM)
CN1CCCN(c2ccc(NC(=O)c3nn(-c4ccccc4)c(=O)c4ccccc34)cc2F)CC1 | 82% | -6.28 | –
Cc1cc(N2CCC(c3nnc(CN4CCC(O)CC4)n3C)CC2)ncn1 | 1% | -0.12 | –
CC1(CNC(=O)N2CCC[C@]3(CC=CCC3)C2)COC1 | -8% | 0.89 | –
CCc1nc(Cn2cnc(-c3ccccc3)c2-c2cc(CN(C)C)cs2)no1 | -8% | 1.45 | –
CC(C)[C@H](NC(=O)c1ccccn1)c1nc2ccccc2n1C(C)C | – | – | -10% and 0%
c1cncc(CNc2cnc3ccccc3c2)c1 | -16% | 1.59 | –
COC(=O)c1cc(CNc2ccc3[nH]ncc3c2)c[nH]1 | -10% | 1.19 | –
Cc1cccc(N2CCN(C(=N)NS(=O)(=O)c3ccc(F)cc3)CC2)c1C | -15% | 2.36 | –
Cc1ccccc1OS(=O)(=O)Cc1ccon1 | -6% | 0.9 | –
O=C(c1conc1C1CC1)N1C2COCC1C2 | -12% | 1.08 | –
CCCN1C(=O)c2ccccc2NC12CCCCC2 | 2% | -0.29 | –
COc1ccccc1-c1n[nH]cc1CN1CCCN(S(C)(=O)=O)[C@H](c2ccccc2)CC(=O)NCC1 | -4% | 0.53 | –
Cc1ccn(C2CCN(C(=O)C(C)(C)c3c[nH]cn3)CC2)n1 | -6% | 1.19 | –
COc1ccc(S(=O)(=O)N[C@H]2[C@H](O)[C@H](O)C[C@@H]2c2ccccc2C)cc1 | 14% | -1.67 | –
CC1CCC(O)C(C2CCCN2CC(C)CS(C)(=O)=O)C1 (stereo not given) | -5% | 0.85 | –
Cc1cc(CNC(=O)N2CC(C)(C)C[C@H]2c2ccccc2)on1 | -8% | 0.92 | –
O=C(N1CCCN(C2CCC2)CC1)C1(c2ccccc2)CCOCC1 | -14% | 2.36 | –
C[C@H](NCc1ncnn1C(C)(C)C)c1cccc(C2CC2)c1 | -5% | 0.84 | –
Nc1ccc(OCc2ccc(COc3ccc(N)cc3)cc2)cc1 | -9% | 1.14 | –
O=C1COCC(=O)N1C1CCN(S(=O)(=O)CCc2ccccc2)CC1 | 5% | -0.69 | –
